# Out of some 310,000 compounds screened, about 2,200 (0.71%) showed an effect of 50% or more. Effects have a minus sign here. Some of the results follow.
# Biological target: human ether-à-go-go-related gene (hERG) potassium channel (human, UniProt Q12809)
# Experiment: primary screen, population patch clamp on CHO cells stably expressing hERG
# human ether-à-go-go-related gene (hERG) potassium channel, sequence (Q12809 whole entry, looked up): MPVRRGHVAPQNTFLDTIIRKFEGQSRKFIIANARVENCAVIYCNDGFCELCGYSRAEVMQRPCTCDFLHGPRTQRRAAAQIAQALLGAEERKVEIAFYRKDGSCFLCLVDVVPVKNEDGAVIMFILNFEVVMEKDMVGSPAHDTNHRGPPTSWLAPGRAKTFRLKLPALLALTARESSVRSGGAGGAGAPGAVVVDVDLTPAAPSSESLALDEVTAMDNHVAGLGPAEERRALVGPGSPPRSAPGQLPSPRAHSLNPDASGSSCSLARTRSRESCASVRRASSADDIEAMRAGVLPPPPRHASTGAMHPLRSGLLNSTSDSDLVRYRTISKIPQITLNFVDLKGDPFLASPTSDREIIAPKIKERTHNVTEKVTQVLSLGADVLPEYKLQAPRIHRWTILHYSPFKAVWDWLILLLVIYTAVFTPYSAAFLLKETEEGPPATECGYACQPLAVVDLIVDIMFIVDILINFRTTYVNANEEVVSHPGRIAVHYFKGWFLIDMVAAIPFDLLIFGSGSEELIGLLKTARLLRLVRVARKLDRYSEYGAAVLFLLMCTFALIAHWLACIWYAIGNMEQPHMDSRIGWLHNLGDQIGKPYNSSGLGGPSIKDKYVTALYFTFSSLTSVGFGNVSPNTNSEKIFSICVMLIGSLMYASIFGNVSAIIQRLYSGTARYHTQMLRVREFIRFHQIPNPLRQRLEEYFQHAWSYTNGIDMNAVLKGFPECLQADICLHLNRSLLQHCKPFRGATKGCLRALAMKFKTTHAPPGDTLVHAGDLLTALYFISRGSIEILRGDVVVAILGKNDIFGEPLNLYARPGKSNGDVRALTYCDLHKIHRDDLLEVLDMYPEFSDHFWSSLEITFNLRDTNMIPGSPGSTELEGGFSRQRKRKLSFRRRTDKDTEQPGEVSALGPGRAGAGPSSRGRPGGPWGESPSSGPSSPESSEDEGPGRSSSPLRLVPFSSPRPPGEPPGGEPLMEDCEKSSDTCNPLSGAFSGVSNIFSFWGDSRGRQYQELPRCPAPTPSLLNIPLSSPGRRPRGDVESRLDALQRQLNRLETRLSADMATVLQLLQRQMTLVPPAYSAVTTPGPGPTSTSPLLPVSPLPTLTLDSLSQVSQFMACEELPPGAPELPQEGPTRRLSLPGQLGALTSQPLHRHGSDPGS
row,SMILES,"hERG current change (%, negative = inhibition) at 1uM"
1,CCc1ccc(OCC(O)CN2CCC(CN3C(=O)c4cccc5cccc(c45)C3=O)CC2)cc1.Cl (centres unmarked),13.9%
2,CC1=C(C(=O)OCC(C)C)C(c2ccc(F)cc2)NC(=O)N1 (centres unmarked),10.6%
3,C=CCOc1ccc(/C=C2\C(=N)N3N=C(S(=O)(=O)CC)SC3=NC2=O)cc1OC,6.64%
4,Cc1cccc(-n2ncc3c(NCc4ccco4)ncnc32)c1,-0.273%
5,CC/C(=N\NC(=O)C1CCCC1)c1ccc(Br)cc1,11%
6,CN(Cc1ccccc1)C(=O)CCC1CCN(S(C)(=O)=O)CC1,7.49%
7,COc1cccc(-c2[nH]nc3c2C(c2ccoc2)C(C#N)=C(N)O3)c1 (centres unmarked),4.73%
8,CC(=O)N1c2ccc(S(=O)(=O)NCCc3ccccc3)cc2CC1C (centres unmarked),8.21%
9,COc1ccccc1NC(=O)N(c1c(N)n(Cc2ccccc2)c(=O)[nH]c1=O)C1CCCC1,0.722%
10,O=C(NC1CCSC1=O)c1ccc(Cl)cc1 (centres unmarked),0.7%
11,COc1ccc(C(CNC(=O)C(C)Oc2ccc(Br)cc2)N2CCOCC2)cc1 (centres unmarked),3.79%
12,COC(=O)c1c(C)nc2ccccc2c1-c1ccccc1,-3.15%
13,CCN(CCn1cccn1)C(=O)CC1C(=O)NCCN1Cc1ccc(F)cc1 (centres unmarked),6.34%
14,CC(C)CC(=O)NC(=S)Nc1ccccc1C(F)(F)F,0.73%
15,CCOC(=O)CSCC(=O)N1N=C(c2cccs2)CC1c1ccc(F)cc1 (centres unmarked),6.12%
16,CC1CCC/C(=N\NC(=O)Nc2ccccc2)C1 (centres unmarked),-1.92%
17,O=C(CCCCCCC(=O)c1ccccc1)c1ccccc1,10.2%
18,CC(C)C1C(=O)NC(=S)N1S(=O)(=O)c1ccc(C(C)(C)C)cc1 (centres unmarked),9.35%
19,COc1cc(N)c(Cl)cc1C(=O)OCC(=O)c1cccs1,18.7%
20,CCn1nccc1C(=O)Nc1ccc(C(=O)OC(C)C)cc1,13.9%
21,CCOC(=O)C[C@H]1c2ccc(C(F)(F)F)cc2S(=O)(=O)N1C1CCCC1,8.64%
22,COc1ccc(C2=NOC3(CC(=O)N(c4ccc(C)cc4)C3=O)C2)cc1 (centres unmarked),5.51%
23,Cc1nc(NCc2ccccc2)sc1C(=O)Nc1ccccc1,13.8%

row,SMILES,"hERG current change (%, negative = inhibition) at 1uM"
1,O=C(N[C@@H](Cc1ccccc1)C(=O)OCc1ccccc1)c1nc[nH]c1C(=O)NCc1ccccc1,0.398%
2,COc1cccc(C2=NOC(C(=O)Nc3cccc(C(C)=O)c3)C2)c1 (centres unmarked),-13.8%
3,O=C(N/N=C/c1ccc(O)c([N+](=O)[O-])c1)C(O)(c1ccccc1)c1ccccc1,17.5%
4,O=S(=O)(NC1CCCCC1N1CCC(O)CC1)c1ccc(Cl)cc1 (centres unmarked),5.39%
5,COC(=O)CSc1nc(N)c2c3c(sc2n1)CCCC3,-0.221%
6,C=CCCCCCCCC(=O)OC,16%
7,CCOc1ccccc1OCCCOc1ccc(C)cc1Br,7.8%
8,CC(C)COc1ccc(C2(C#N)CC[N+](C)(C)CC2)cc1.[Br-],9.21%
9,O=C(Nc1ccncc1)c1ccc(C(=O)Nc2ccncc2)cc1,2.85%
10,Cc1sc2ncn(CC(=O)NCCCN3CCC(C)CC3)c(=O)c2c1S(=O)(=O)N1CCC(C)CC1,16.9%
11,Cc1cccc(C)c1OCC(=O)Nc1ccc(S(=O)(=O)Nc2ccccn2)cc1,3.35%
12,CN(C)CCCN(C(=O)c1ccco1)c1nc2ccc(Br)cc2s1.Cl,-33%
13,CCc1sc(NC(=O)C(C)C)nc1-c1ccccc1,-0.0628%
14,COc1ccc(C(=O)/C=C/c2cn(CC(O)CN3CCN(C)CC3)c3ccccc23)cc1OC (centres unmarked),5.59%
15,CCN1CCN(CCCNC(=O)CNC(=O)c2nn(-c3ccc(OC)cc3OC)c(=O)c3ccccc23)CC1,1.82%
16,O=C(COc1ccc(S(=O)(=O)N2CCCCC2)cc1)N1CCN(Cc2ccccc2)CC1,2.21%
17,Cc1n[nH]c(=S)n1/N=C/c1c(O)ccc2ccccc12,21.6%
18,COC(=O)c1ccc(Oc2nc(C(N)=O)cc(-c3ccccc3)n2)cc1,18.2%
19,CCC/C(=N\NC(=O)CNC(=O)/C=C/c1ccco1)c1ccccc1,-0.435%
20,CCC1(C)Cc2c(sc3[nH]c(=S)n(Cc4ccccc4)c(=O)c23)CO1 (centres unmarked),11%
21,COc1ccc(-n2ncc3c2CC(C)(C)CC3NC(=O)CCc2c(C)nn(C)c2C)cc1 (centres unmarked),5.99%
22,CCCOc1ccc(C(=O)NNC(=S)NC(=O)c2cccs2)cc1,21.1%
23,CNC(=S)Nc1cc(OC)c(NC(=O)c2ccco2)cc1OC,18.8%

row,SMILES,"hERG current change (%, negative = inhibition) at 1uM"
1,CCOC(=O)c1nn(-c2cccc(C)c2)c2nc(-c3ccccc3)c(C#N)c(=O)n12,-2.43%
2,CCOC(=O)c1cnc2c(C#N)cnn2c1N,18.5%
3,CC1C(=O)Nc2ccccc2N1C(=O)c1cccc(C(F)(F)F)c1 (centres unmarked),6.13%
4,COc1ccc(Cn2c(SCc3ccccc3C)nc3cc(OC)c(OC)cc3c2=N)cc1,5.34%
5,C/C(=N\OCC(=O)O)c1ccc(Cl)cc1,11.8%
6,C=C1C(=O)O[C@@H]2C[C@@H](C)[C@H]3C=CC(=O)[C@]3(O)C[C@@H]12,12.6%
7,Cc1csc(NC(=O)CSc2nnc(-c3ccc(Cl)cc3)n2N)n1,-4.27%
8,Cc1noc(C)c1S(=O)(=O)N1CCCC(C(=O)NCc2ccccn2)C1 (centres unmarked),6.3%
9,CC(=O)N(C1=C(Cl)C(=O)c2ccccc2C1=O)c1ccc(C(=O)O)cc1,11.1%
10,Cc1cc(C)n2nc(SCCOc3ccccc3)nc2n1,1.37%
11,CCOC(=O)NC(O)C(=O)c1cccs1 (centres unmarked),11.7%
12,COc1ccccc1C(=O)NNC(=O)C(=O)Nc1cccc(Cl)c1C,14.9%
13,COc1ccc(C(=O)NC2CCN(C(=S)NCCc3ccccc3)CC2)cc1,11.4%
14,CC(C)Cc1c2c([nH]c(=S)c1C#N)CCCC2,15.4%
15,COc1ccc(NC(=O)c2ccc(COc3ccccc3Br)o2)c(OC)c1,11.1%
16,C=CCNC(=O)C1CCN(S(=O)(=O)CC)CC1,1.84%
17,Cc1ccc(CSC2=NCCN2S(=O)(=O)c2ccc(F)cc2)cc1,9.99%
18,O=C(NC(=S)N1CCCc2ccccc21)c1ccco1,9.28%
19,c1ccc(SCCCCNC2CCCC2)cc1,-2.58%
20,N#C/C(=C\c1cn(Cc2cccc(F)c2)c2ccccc12)C(=O)NCc1ccco1,13.8%
21,COc1ccc(C(=O)C2CCCN(C(=O)c3ccc(F)cc3)C2)cc1OC (centres unmarked),5.09%
22,O=C(CSc1nnc(CNC(=O)c2cccc(C(F)(F)F)c2)o1)NC1CCCC1,9.05%
23,N#Cc1cn(-c2cccc(C(F)(F)F)c2)c(=O)[nH]c1=O,13.8%

row,SMILES,"hERG current change (%, negative = inhibition) at 1uM"
1,COc1ccc(NC(=O)/C=C/c2ccccc2)cn1,5.89%
2,Cc1cc(NS(=O)(=O)c2ccc(NC(=S)NC(=O)c3cccnc3)cc2)no1,4.82%
3,O=c1nc(Nc2cccc(Cl)c2)oc2cc(Cl)oc(=O)c12,13%
4,Cc1ccc(NC2=NC(=S)N(CC#N)C23CCCCC3)cc1,-2.71%
5,CSc1nnc(CNS(=O)(=O)c2ccc(Cl)cc2)n1C,17.8%
6,COCCNC(=O)c1c(N)n(-c2ccccc2)c2nc3ccccc3nc12,-6.18%
7,CN(C)S(=O)(=O)c1ccc(C(=O)OCC(=O)Nc2ccc(OC(F)F)cc2)cc1,12%
8,Nc1c(-c2cccs2)cnn1-c1nc(-c2ccc(F)cc2)cs1,11.5%
9,CCc1nc(SCC(=O)Nc2cc(C)on2)n[nH]1,2.4%
10,Cc1ccccc1NC(=O)COc1ccccc1C,18.3%
11,Cc1ccc(NCc2ccc(O)c3ncccc23)cc1,17.9%
12,CCOc1ccc(NC(=O)CNc2ccc(C)cc2Cl)cc1,12.5%
13,O=C(CSc1nc2ccccc2nc1N1CCCC1)Nc1ccc(F)cc1,11.1%
14,O/N=C/c1ccnc(SCc2ccccc2)n1,4.94%
15,CC(C)Oc1nc(-c2ccc(Cl)cc2)nc2ccccc12,11%
16,COc1ccc(N2C(=O)c3ccccc3C2=O)cc1,5.04%
17,CCCCCCP(=O)(O)c1ccccc1,5.36%
18,O=S(=O)(NCC(Nc1ccc(Cl)cc1)c1ccccc1)c1ccc(Cl)cc1 (centres unmarked),17.4%
19,COC(=O)C1=C(N)c2c(F)cccc2C1(C#N)c1ccccc1 (centres unmarked),5.51%
20,CCNC(=O)C(=O)Nc1ccc2c(c1)N(S(=O)(=O)c1cccs1)CCC2,14.6%
21,O=C(Cn1cc(C(F)(F)F)ccc1=O)Nc1ccccc1,14%
22,COc1ccc(N(CC(=O)Nc2ccc3c(c2)OCO3)S(=O)(=O)c2c(C)nn(C)c2C)cc1,15.5%
23,CCOC(=O)c1ccc(N=Cc2nc(-c3ccccc3)oc2OC(C)=O)cc1,14.1%
